Measured values from the RNAGym collection of RNA variant scans (doi:10.1093/nar/gkz1192).
Read counts are not given, so values of variants with three or more changes are uncertain.

B1: CPEB3 Ribozyme (parent)
chain: UAACAGGGGGCCACAGCAGAAGCGUUCACGUCGCAGCCCCUGUCAGAUUCUGGUGAAUCUGCGAAUUCUGCUGUAUAUCUC

Variants of: B1
Experiment: self-cleavage, relative activity (ratio to wild type); higher = more cleavage; in vitro, sequencing
How it was run: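 Relative activity compares each variant's cleaved/total read fraction with that of the unmutated ribozyme. To get these fractions, barcoded CPEB3 ribozyme libraries from rounds of error-prone PCR were transcribed with T7 RNA polymerase for 5 hours at 37°C and then given 15 min of DNase I treatment before EDTA was added. The RNAs were reverse transcribed with template switching and sequenced on Illumina, and DNA sequencing linked barcodes to variants. A minimum of 5 reads applied, and three batches were averaged.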

Variant | self-cleavage
UAACAGGGGGCCACGGCAGAAGCGCUCACUUCGCAGCCCCUGUCAGAUUCUGGUGAAUCUGCGAAUUCUGCUGUAUAUCUC [A15G U25C G30U] | 0.08
UAACAGGGGGCCACGGCAGAAGCGCUCACGUAGCAGCCCCUGUCAGAUUCUGGUGAAUCUGCGAUCUCUGCUGUAAAUCUC [A15G U25C C32A A65U U66C U76A] | 0.08
UAACAGGGGGCCACGGCAGAAGCGCUCACGUCGCAGCCCCUGUCAGAUACUGGUGAAUCUGCGAAUUCUGCUGUAUAUCUG [A15G U25C U49A C81G] | 0.07
UAACAGGGGGCCACGGCAGAAGCGCUCACGUCGCAGCCCCUGUCAGAUUCAGGCGAUUCUGCGAAUUCUGCUGUAUAUCUC [A15G U25C U51A U54C A57U] | 0.09
UAACAGGGGGCCACGGCAGAAGCGCUAACGUCGCAGCCCCUGUCAGAUUCUGGUGAAUCUGCGAAUUCUGCUGUAUAUCUC [A15G U25C C27A] | 0.31
UAACAGGGGGCCACGGCAGAAGCGCUCACCUCGCAGCCCCUGUCAGAUUCCGGUGAUUCUGCGAAUUCUGCUGUAUAUCUC [A15G U25C G30C U51C A57U] | 0.13
UAACAGGGGGCCACGGCAGAAGCGCUCACGUCGCUGCCCCUGUCAGAUUCUGGUGAAUCCGCGAAUUCCGCUGUAUAUCUC [A15G U25C A35U U60C U69C] | 0.16
UAACAGGGGGCCACGGCAGAAGCGUUCACUUCCCAGCCCCUGUCAGGUUCUGGUGAAUCUGCGAAUUCUGCUAUAUAUCCC [A15G G30U G33C A47G G73A U80C] | 0.34
UAACAGGGGGCCACGGCAGAAGCGACCACGUCGCAGCCCCUGUCAGAUUCUGGUGAAUCUGCGAAUUCUGCCGUAUAUCUC [A15G U25A U26C U72C] | 0.12
UAACAGGGGGCCACGGCAGAAGCGCUCACGUCGCAGCCCCUGUCAGAUUCUGGUGAAUCUGCGCAUUCAGCUGUAUAUCUC [A15G U25C A64C U69A] | 0.25
UAACAGGGGGCCACGGCAGAAGCGAUCACGUCGCAGCCCCUGUCAGAUUCUGGUGAAUCUGCGUAUUCUGCUGUACAUCUC [A15G U25A A64U U76C] | 0.05
UAACAGGGGGCCACGGCAGAAGCGCUCACGUCGCAGCCCCUGUCAGAUUCUGGUGAAUCUGUGAAUUCUGCUGUAUAUCUC [A15G U25C C62U] | 0.11
UAACAGGGGGCCACGGCAGAAGCGCUCACGUCGCAGCCCCUGUCAGAUUCUGGCGAAUCUGCGAAUUCAGCUGUAUAUCUC [A15G U25C U54C U69A] | 0.1
UAACAGGGGGCCACGGCAGAAGCGCUCGCGUCGCAGCCCCCGUCAGAUUCUGGUGAAUCUGCGAAUUCUGCUGUAUAUCUC [A15G U25C A28G U41C] | 0.16
UAACAGGGGGCCACGGCAGAAGCGCUCACGUCGCUGCCCCUGCCAGAUUCUGGUGAUUCUGCGUAUUCUGCUGUAUAUCUC [A15G U25C A35U U43C A57U A64U] | 0.04
UAACAGGGGGCCACGGCAGAAGCGCUCACGCCGCAGCCCCUGUCAGAUUCGGGUGAGUCUGCGAAUUCUGCUGUAUAACUC [A15G U25C U31C U51G A57G U78A] | 0.11
UAACAGGGGGCCACGGCAGAAGCGAUCACGUCGCAGCCCCUGUCAGAUUCCGGUGAAUCUGCGGAUUCUGCUGUAUAUCCC [A15G U25A U51C A64G U80C] | 0.05

Variant | self-cleavage
UAACAGGGGGCCACGGCAGAAGCGCUCACGUCGCAGCCCCUGUCAGAUUCUGGUGAAUCUGCGUAUUCUGCUGUAUAUCUC [A15G U25C A64U] | 0.23
UAACAGGGGGCCACGGCAGAAGCGCUCACGUCGCAGCCCCUGACAGAUUCUGGUGAAUCUGCGAAUUCUGCGGUAUAUCUC [A15G U25C U43A U72G] | 0.13
UAACAGGGGGCCACGGCAGAAGCGUUCACGUCGCAGCCCCUAUCAGAUUCUGGUGAAUCUGCGUAUUCUGCUGUAUAUCUC [A15G G42A A64U] | 0.16
UAACAGGGGGCCACGGCAGAAGCGAUCACGUCGCGGCCCCUGUCAGAUUCUGGUGGAUCCGCGAAUUCUGCUGUAUAUCUC [A15G U25A A35G A56G U60C] | 0.06
UAACAGGGGGCCACGGCAGAAGCGUUCACGUCGCAGCCCCUGUCAGAUUCUGGUGAAUCUGCGAAUUCUCUUGUAUAUCUC [A15G G70C C71U] | 0.34
UAACAGGGGGCCACGGCAGAAGCGCUAACGUCGCAGGCCCUGUCAGAUUCUGGUGAAGCUGCGAAUCCUGCUGUAUAUCAC [A15G U25C C27A C37G U58G U67C U80A] | 0.1
UAACAGGGGGCCACGGCAGAAGCGCUCACGUCGCAGCCCCAGUCAGAUUCUAGUGAAUCUGCGGAUUCUGCUGUAUAUCUC [A15G U25C U41A G52A A64G] | 0.12
UAACAGGGGGCCACGGCAGAAGCGCUCACGACGCAGCCCCUGUCGGGUUCUGGUGAAUCUGCGAAUUCUGCUGUAUGUCUC [A15G U25C U31A A45G A47G A77G] | 0.16
UAACAGGGGGCCACGGCAGAAGCGUUCACGUCGCAGCCCCUGUCAGAUUCUGAGGAAUCUGCGAAUUCUGCUGUAUAUCUC [A15G G53A U54G] | 0.95
UAACAGGGGGCCACGGCAGAAGCGUUCACUUCGCAGCCCCUGUCAGGUUCUGGUGAAUCUGCGAAUUCUGCUGUAUAUCUC [A15G G30U A47G] | 0.19
UAACAGGGGGCCACGGCAGAAGCGUUCACGUCACAGCCCCUGUCAGAUUCUGGUGAAUCUGCGAAUUCUGCUGAAUAUCUC [A15G G33A U74A] | 0.41
UAACAGGGGGCCACGGCAGAAGCGCUCACGUCGCAGCCACUGUCAGAUUCUGGAGAAUCUGCGCAUUCCGCCGUAUAUCUC [A15G U25C C39A U54A A64C U69C U72C] | 0.09
UAACAGGGGGCCACGGCAGAAGCGUUCACGUCGCAGCCCCUGUCAAAUUCUGGUGAGUCUGCGAAUUCUGCUGUAUAUCUC [A15G G46A A57G] | 0.24
UAACAGGGGGCCACGGCAGAAGCGCUCACGUCGCAGCCCCUGUCAGAUUCUGGUGAGUCUGCGAAUUGAGCUGUAUAUCUU [A15G U25C A57G C68G U69A C81U] | 0.02
UAACAGGGGGCCACGGCAGAAGCGAUCACGCCGCAGCCCCUAUCAGAUUCUGGCGAAUCUGCGAUCUCUGCUGUAUAUCUC [A15G U25A U31C G42A U54C A65U U66C] | 0.07
UAACAGGGGGCCACGGCAGAAGCGCUCACGUCGCAGCCCCAGUCAGAUUCUGGUGAGUCUGCGAAUUCUGCUGUAUAUCUC [A15G U25C U41A A57G] | 0.16
UAACAGGGGGCCACGGCAGAAGCGCUCACGUCGCAGCCCCUGUCAGAUUCUGGUGAAUCUGCGAAUUCUGCUGUAUGUCUC [A15G U25C A77G] | 0.3
